# In PubChem BioAssay AID588855 (National Center for Advancing Translational Sciences (NCATS), 2011):
# The whole screen tested about 410,000 compounds, of which about 5,000 (1.2%) were called active. Inconclusive results, whose numbers are uncertain, are shown with a selection of clear calls. Calls come from the whole dose curve; as a rule, active = well fitted inhibition curve with a large enough effect; inconclusive = small, poorly fitted or top-dose-only effect; inactive = no such curve, though single readings can be large or run the other way. A potency beside an inconclusive call is a rough fit, not a confirmed value.
# Test: qHTS for Inhibitors of TGF-b; note: nearly all actives have a fitted effect of over 65% in size
# Details: HepG2 CAGA-GFP TGF-b/SMAD3 reporter, GFP fluorescence, 18 h, TGF-beta stimulated, 500 pg/mL final; series mostly up to 46.1 µM
# In short: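 Inhibition of TGF-beta-driven CAGA-GFP reporter expression in HEPG2 cells is measured by cellular GFP fluorescence after 18 h stimulation with 500 pg/mL recombinant TGF-beta in 1% FBS medium at 37 degrees C.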
# Potency is the fitted concentration of half-maximal effect; tags give direction and shape of the fitted curve.
row,SMILES,Potency
1,O=C(Nc1ccc(F)cc1F)N1CCN(c2ccc(Cl)c(Cl)c2)CC1,"inconclusive: 28.2 µM [inhibitor, single point]"
2,COc1ccc(CN2CCN(C(=O)CCC(=O)Nc3nnc(C4CCCCC4)s3)CC2)cc1F,"inconclusive: 8.91 µM [inhibitor, partial curve, poor fit]"
3,O=C(CN1CCN(S(=O)(=O)c2ccc(F)c(Cl)c2)CC1)N1CCc2ccccc21,"inconclusive: 35.5 µM [inhibitor, single point]"
4,CSc1ccc(S(=O)(=O)Nc2ccc3c(c2)NC(=O)CC3)cc1,"inconclusive: 1.41 µM [inhibitor, partial curve, poor fit]"
5,CSc1nc2sc3c(c2c(=O)[nH]1)CC(C)(C)OC3,inactive
6,Cc1ccc(NC(=O)C2CC(=O)N(c3ccc4c(c3)OCCO4)C2)cc1S(=O)(=O)N(C)C (configuration not stated),"inconclusive: 25.1 µM [inhibitor, single point]"
7,Cc1ccc(S(=O)(=O)c2nc(-c3ccccc3Br)oc2N(C)C)cc1,"inconclusive: 6.31 µM [inhibitor, single point]"
8,CCOc1ccc(C(c2c(O)cc(C)n(Cc3ccco3)c2=O)N2CCN(c3ccccc3)CC2)cc1 (configuration not stated),inactive
9,COc1ccc(/C=C2\SC(=S)N(CCCC(=O)NNC(=O)c3ccccc3O)C2=O)cc1,inactive
10,Cc1cccc(CNC(=O)C2CCN(S(=O)(=O)c3ccc4c(c3)CCCN4C(=O)C3CCC3)CC2)c1,"inconclusive: 11.2 µM [inhibitor, single point]"
11,O=C(COC(=O)C1CC(=O)N(c2ccc3c(c2)OCCO3)C1)NC1CCCc2ccccc21 (configuration not stated),inactive
12,CCOc1ccc(S(=O)(=O)NCc2ccncc2)cc1NC(=O)c1ccccc1F,inactive
13,CCCCCc1nn2cc(-c3ccccc3)nc2s1,inactive
14,CC(=O)Nc1ccccc1OCC(=O)N(Cc1ccccc1)C(C)C,"inconclusive: 1.41 µM [inhibitor, full curve, poor fit]"
15,CCOC(=O)c1ccn(-c2nc(-c3cccc(OC)c3)cc(C(F)(F)F)n2)n1,inactive
16,COC(=O)Nc1ccc(S(=O)(=O)Nc2ncccn2)cc1,"inconclusive: 3.16 µM [inhibitor, single point]"
17,CCN(CC)CCn1c(SCC(=O)Nc2ccc3c(c2)CCC3)nc2ccccc2c1=O,"inconclusive: 35.5 µM [inhibitor, single point]"
18,Cn1cc(-c2nnnn2-c2cccc(C(F)(F)F)c2)c(C(F)(F)F)n1,inactive
19,COc1ccc(O)c(/C=N/n2c(-c3ccco3)csc2=Nc2cccnc2)c1,"inconclusive: 11.2 µM [inhibitor, partial curve, poor fit]"
20,COc1cccc(NC(=O)N(Cc2c[nH]c3ccccc23)C2CCCCC2)c1,"inconclusive: 3.98 µM [inhibitor, full curve, poor fit]"
21,CCOCCCn1c(SCC(=O)Nc2ccccc2OC)nc2ccccc2c1=O,inactive

row,SMILES,Potency
1,COc1ccc(C2C=C3CNS(=O)(=O)C3CC2OC(=O)c2cccs2)cc1 (configuration not stated),"inconclusive: 35.5 µM [inhibitor, single point]"
2,COc1cccc2sc(=NC(=O)CCS(=O)(=O)c3ccc(C)cc3)n(C)c12,inactive
3,COc1cc(O)cc2c1[C@@H]1Oc3c(ccc(O)c3CC=C(C)C)[C@@H]1CO2,"inconclusive: 10 µM [inhibitor, partial curve]"
4,CC(=O)Nc1ccc(-c2ccnc3c2CC(C(=O)Nc2ccc(Cl)c(C(F)(F)F)c2)O3)cc1 (configuration not stated),active: 14.1 µM
5,Cc1ccc(C(C(=O)NC2CCCCC2)N(Cc2cccnc2)C(=O)C2COc3ccccc3O2)o1 (configuration not stated),"inconclusive: 35.5 µM [inhibitor, single point]"
6,Cc1cc(C)cc(N2C(=O)CCSC23C(=O)N(Cc2ccccc2)c2ccccc23)c1 (configuration not stated),"inconclusive: 4.47 µM [inhibitor, partial curve, poor fit]"
7,O=S(=O)(NCCc1csc2nc(-c3ccc(F)cc3)nn12)c1ccc(Oc2ccccc2)cc1,inactive
8,O=C(Nc1cccc(OC(F)(F)F)c1)C1Cc2c(-c3cccc(F)c3)ccnc2O1 (configuration not stated),"inconclusive: 35.5 µM [inhibitor, single point]"
9,Cc1ccc(Cl)cc1NC(=O)Cn1ncc2c(C)n(Cc3ccccc3F)c(C)c2c1=O,"inconclusive: 35.5 µM [inhibitor, single point]"
10,Cc1c(CC(=O)Nc2ccc(Cl)cc2)sc2ccc(Cl)cc12,inactive
11,Cc1ccc(CNC(=O)c2cccc(S(C)(=O)=O)c2)cc1,"inconclusive: 6.31 µM [inhibitor, single point]"
12,COc1ccc(-c2nc(-c3ccccc3)c(-c3ccc(F)cc3)[nH]2)c(OC)c1C,"inconclusive: 22.4 µM [inhibitor, single point]"
13,Cc1nc(CCNC(=O)c2ccccc2)cs1,"inconclusive: 5.62 µM [inhibitor, single point]"
14,CC(C)Cn1c(=O)c2c(nc3n2CCCN3Cc2ccccc2)n(C)c1=O,"inconclusive: 35.5 µM [inhibitor, single point]"
15,O=C(Cn1cnc2ccccc21)N/N=C/c1cccs1,inactive
16,Cc1cc(C(=O)CCC(=O)N(C)CC(=O)Nc2ccc(OC(F)(F)F)cc2)c(C)s1,inactive
17,CCCCCOc1ccc(Br)cc1CSC(=N)N,"inconclusive: 12.6 µM [inhibitor, partial curve, poor fit]"
18,CN(Cc1ccc(OC(F)F)cc1)C(=O)C1CCN(S(=O)(=O)c2ccc3c(c2)OCCO3)CC1,"inconclusive: 15.8 µM [inhibitor, single point]"
19,CCC(C)n1c(=O)c2sccc2n2c(CCCC(=O)Nc3ccc(F)cc3)nnc12 (configuration not stated),"inconclusive: 11.2 µM [inhibitor, partial curve, poor fit]"
20,S=C(NCc1ccccc1)NCc1ccc(Cl)cc1,"inconclusive: 10 µM [inhibitor, partial curve, poor fit]"
21,CCOc1ccc(CCNC(=O)c2ccc3nc(N4CCC(C)CC4)sc3c2)cc1OCC,"inconclusive: 0.316 µM [inhibitor, full curve, poor fit]"
